Reference: paper PMC9911399, “Two distinct binding modes provide the RNA-binding protein RbFox with extraordinary sequence specificity”
Residue numbers refer to the chain shown, from its start. This is one part of the list.

T1: RBFOX1 RRM RbFoxmut (Fox-RRM*) (Homo sapiens, UniProt Q9NWB1 109-208, R118D;E147R;N151S;E152T)
T1 sequence: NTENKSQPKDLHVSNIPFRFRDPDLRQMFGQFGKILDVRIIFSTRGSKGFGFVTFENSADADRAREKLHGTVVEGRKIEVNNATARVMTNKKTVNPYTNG

B1: UGGAUGC (DNA:RNA)
RNA: GGGAGACCGGAAUUCAGAUUGUCCUGGAUGCUUAAAUCCCGUCGUAGCCACCA
DNA 1: CAATCTGAATTCCGGTCTCCC
DNA 2: TGGTGGCTACGACGGGATT
B2: CCUCCCU (DNA:RNA)
RNA: GGGAGACCGGAAUUCAGAUUGUCCCCUCCCUUUAAAUCCCGUCGUAGCCACCA
DNA 1: CAATCTGAATTCCGGTCTCCC
DNA 2: TGGTGGCTACGACGGGATT
B3: CCAUGCU (DNA:RNA)
RNA: B2 RNA with U27A, C28U, C29G
DNA 1: CAATCTGAATTCCGGTCTCCC
DNA 2: TGGTGGCTACGACGGGATT
B4: GUAGGUC (DNA:RNA)
RNA: B1 RNA with U25G, G26U, G27A, A28G, U29G, G30U
DNA 1: CAATCTGAATTCCGGTCTCCC
DNA 2: TGGTGGCTACGACGGGATT
B5: UAAGUUU (DNA:RNA)
RNA: B1 RNA with G26A, G27A, A28G, G30U, C31U
DNA 1: CAATCTGAATTCCGGTCTCCC
DNA 2: TGGTGGCTACGACGGGATT
B6: UGUCGAC (DNA:RNA)
RNA: B1 RNA with G27U, A28C, U29G, G30A
DNA 1: CAATCTGAATTCCGGTCTCCC
DNA 2: TGGTGGCTACGACGGGATT
B7: ACGUAUA (DNA:RNA)
RNA: B2 RNA with C25A, U27G, C28U, C29A, C30U, U31A
DNA 1: CAATCTGAATTCCGGTCTCCC
DNA 2: TGGTGGCTACGACGGGATT
B8: UCCCAAA (DNA:RNA)
RNA: B2 RNA with C25U, U27C, C29A, C30A, U31A
DNA 1: CAATCTGAATTCCGGTCTCCC
DNA 2: TGGTGGCTACGACGGGATT
B9: AACGGCU (DNA:RNA)
RNA: B2 RNA with C25A, C26A, U27C, C28G, C29G
DNA 1: CAATCTGAATTCCGGTCTCCC
DNA 2: TGGTGGCTACGACGGGATT
B10: UGGGCCG (DNA:RNA)
RNA: B1 RNA with A28G, U29C, G30C, C31G
DNA 1: CAATCTGAATTCCGGTCTCCC
DNA 2: TGGTGGCTACGACGGGATT
B11: GCAGUAA (DNA:RNA)
RNA: B2 RNA with C25G, U27A, C28G, C29U, C30A, U31A
DNA 1: CAATCTGAATTCCGGTCTCCC
DNA 2: TGGTGGCTACGACGGGATT
B12: UUUUUCC (DNA:RNA)
RNA: B1 RNA with G26U, G27U, A28U, G30C
DNA 1: CAATCTGAATTCCGGTCTCCC
DNA 2: TGGTGGCTACGACGGGATT
B13: UCAACAG (DNA:RNA)
RNA: B2 RNA with C25U, U27A, C28A, C30A, U31G
DNA 1: CAATCTGAATTCCGGTCTCCC
DNA 2: TGGTGGCTACGACGGGATT
B14: UGUGUAU (DNA:RNA)
RNA: B1 RNA with G27U, A28G, G30A, C31U
DNA 1: CAATCTGAATTCCGGTCTCCC
DNA 2: TGGTGGCTACGACGGGATT
B15: GCUGUGC (DNA:RNA)
RNA: B1 RNA with U25G, G26C, G27U, A28G
DNA 1: CAATCTGAATTCCGGTCTCCC
DNA 2: TGGTGGCTACGACGGGATT
B16: ACAGGAG (DNA:RNA)
RNA: B2 RNA with C25A, U27A, C28G, C29G, C30A, U31G
DNA 1: CAATCTGAATTCCGGTCTCCC
DNA 2: TGGTGGCTACGACGGGATT
B17: GUGAGGC (DNA:RNA)
RNA: B1 RNA with U25G, G26U, U29G
DNA 1: CAATCTGAATTCCGGTCTCCC
DNA 2: TGGTGGCTACGACGGGATT
B18: ACAAGCC (DNA:RNA)
RNA: B2 RNA with C25A, U27A, C28A, C29G, U31C
DNA 1: CAATCTGAATTCCGGTCTCCC
DNA 2: TGGTGGCTACGACGGGATT
B19: GGGACAC (DNA:RNA)
RNA: B1 RNA with U25G, U29C, G30A
DNA 1: CAATCTGAATTCCGGTCTCCC
DNA 2: TGGTGGCTACGACGGGATT
B20: UGGACCA (DNA:RNA)
RNA: B1 RNA with U29C, G30C, C31A
DNA 1: CAATCTGAATTCCGGTCTCCC
DNA 2: TGGTGGCTACGACGGGATT
B21: AGAAUCC (DNA:RNA)
RNA: B1 RNA with U25A, G27A, G30C
DNA 1: CAATCTGAATTCCGGTCTCCC
DNA 2: TGGTGGCTACGACGGGATT
B22: AGGACCG (DNA:RNA)
RNA: B1 RNA with U25A, U29C, G30C, C31G
DNA 1: CAATCTGAATTCCGGTCTCCC
DNA 2: TGGTGGCTACGACGGGATT
B23: UAGCCAA (DNA:RNA)
RNA: B2 RNA with C25U, C26A, U27G, C30A, U31A
DNA 1: CAATCTGAATTCCGGTCTCCC
DNA 2: TGGTGGCTACGACGGGATT
B24: GAGAAUG (DNA:RNA)
RNA: B1 RNA with U25G, G26A, U29A, G30U, C31G
DNA 1: CAATCTGAATTCCGGTCTCCC
DNA 2: TGGTGGCTACGACGGGATT
B25: GAUUACG (DNA:RNA)
RNA: B2 RNA with C25G, C26A, C28U, C29A, U31G
DNA 1: CAATCTGAATTCCGGTCTCCC
DNA 2: TGGTGGCTACGACGGGATT
B26: ACCUAUU (DNA:RNA)
RNA: B2 RNA with C25A, U27C, C28U, C29A, C30U
DNA 1: CAATCTGAATTCCGGTCTCCC
DNA 2: TGGTGGCTACGACGGGATT
B27: UCGCUUG (DNA:RNA)
RNA: B1 RNA with G26C, A28C, G30U, C31G
DNA 1: CAATCTGAATTCCGGTCTCCC
DNA 2: TGGTGGCTACGACGGGATT
B28: GGAAUUC (DNA:RNA)
RNA: B1 RNA with U25G, G27A, G30U
DNA 1: CAATCTGAATTCCGGTCTCCC
DNA 2: TGGTGGCTACGACGGGATT
B29: UCUUCGC (DNA:RNA)
RNA: B2 RNA with C25U, C28U, C30G, U31C
DNA 1: CAATCTGAATTCCGGTCTCCC
DNA 2: TGGTGGCTACGACGGGATT
B30: AUCCUGA (DNA:RNA)
RNA: B1 RNA with U25A, G26U, G27C, A28C, C31A
DNA 1: CAATCTGAATTCCGGTCTCCC
DNA 2: TGGTGGCTACGACGGGATT
B31: GUGCCUU (DNA:RNA)
RNA: B2 RNA with C25G, C26U, U27G, C30U
DNA 1: CAATCTGAATTCCGGTCTCCC
DNA 2: TGGTGGCTACGACGGGATT

The binders below were run against T1, RBFOX1 RRM RbFoxmut (Fox-RRM*) (assay: EMSA; HiTS-Eq, 1 nM pool, 10 min; buffer printed only for the single-RNA assays: 10 mM Tris pH 7.5, 150 mM NaCl, 3.4 mM EDTA, 0.001% NP-40, 30 C). Conditions: tags: His6 N-terminal (pET28a); label: 5' 32P.
Method in brief: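 These values rest on relative association constants, computed from read-count changes of each RNA species versus the control reaction and normalised to the cognate motif. Reads came from free RNA recovered by 8% native PAGE after purified RbFox RRM (wild type or mutant) at increasing concentrations was equilibrated for 10 min in 50 µL with 1 nM of a 5′-radiolabelled pool with 7 randomized nucleotides and DNA-annealed flanks.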
For B1, the binding signal was 0.438 KA relative to UGCAUGU. For B2, the binding signal was 0.0469 KA relative to UGCAUGU. For B3, the binding signal was 0.1 KA relative to UGCAUGU. For B4, the binding signal was 0.156 KA relative to UGCAUGU. In the case of B5, the binding signal is reported as 0.0917 KA relative to UGCAUGU. With B6 the binding signal was 0.0944 KA relative to UGCAUGU. With B7 the binding signal was 0.148 KA relative to UGCAUGU. B8 was tested, and the binding signal was 0.055 KA relative to UGCAUGU. With B9 the binding signal was 0.0834 KA relative to UGCAUGU. With B10 the binding signal was 0.215 KA relative to UGCAUGU. B11 was tested, and the binding signal was 0.0991 KA relative to UGCAUGU. B12 was tested, and the binding signal was 0.0338 KA relative to UGCAUGU. In the case of B13, the binding signal is reported as 0.0843 KA relative to UGCAUGU. B14 was tested, and the binding signal was 0.209 KA relative to UGCAUGU. B15 was tested, and the binding signal was 0.151 KA relative to UGCAUGU. B16 was tested, and the binding signal was 0.103 KA relative to UGCAUGU. For B17, the binding signal was 0.0946 KA relative to UGCAUGU. B18 was tested, and the binding signal was 0.054 KA relative to UGCAUGU. For B19, the binding signal was 0.0733 KA relative to UGCAUGU. In the case of B20, the binding signal is reported as 0.0665 KA relative to UGCAUGU. B21 was tested, and the binding signal was 0.111 KA relative to UGCAUGU. With B22 the binding signal was 0.183 KA relative to UGCAUGU. In the case of B23, the binding signal is reported as 0.0818 KA relative to UGCAUGU. B24 was tested, and the binding signal was 1.5 KA relative to UGCAUGU. B25 was tested, and the binding signal was 0.0988 KA relative to UGCAUGU. With B26 the binding signal was 0.107 KA relative to UGCAUGU. With B27 the binding signal was 0.281 KA relative to UGCAUGU. B28 was tested, and the binding signal was 0.112 KA relative to UGCAUGU. For B29, the binding signal was 0.121 KA relative to UGCAUGU. B30 was tested, and the binding signal was 0.0899 KA relative to UGCAUGU. With B31 the binding signal was 0.0747 KA relative to UGCAUGU.
